Experimental data from PubChem BioAssay AID1346428 (National Center for Advancing Translational Sciences (NCATS), 2018).
Several values for one entry are separate records, joined by “and”; a condition that tells them apart may be missing. Identical values can stand only once. In all, about 48,000 compounds went through this assay and about 1,200 (2.5%) were called active. Not shown: some 2% with an inconclusive outcome.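 Rule for the calls: active = activation of at least 60% and not above a set upper limit (about 1 call in 100 departs from these limits); inconclusive = activation of 40% to 60%, or above that upper limit; inactive = activation under 40%.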 The list shows a part of the results.

Target: Probable G-protein coupled receptor 32 (Homo sapiens) (UniProt O75388)
Sequence of UniProt O75388 (O75388 whole entry, looked up): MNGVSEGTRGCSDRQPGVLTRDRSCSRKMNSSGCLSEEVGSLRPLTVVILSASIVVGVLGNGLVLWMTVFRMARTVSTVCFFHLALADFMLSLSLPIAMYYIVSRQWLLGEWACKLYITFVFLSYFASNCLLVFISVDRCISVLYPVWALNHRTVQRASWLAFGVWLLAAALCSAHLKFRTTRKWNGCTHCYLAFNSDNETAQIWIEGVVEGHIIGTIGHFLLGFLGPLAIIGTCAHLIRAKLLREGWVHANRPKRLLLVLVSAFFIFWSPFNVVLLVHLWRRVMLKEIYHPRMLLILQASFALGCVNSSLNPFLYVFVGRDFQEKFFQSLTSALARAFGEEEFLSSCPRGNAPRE
Assay: qHTS for Agonists of Human Resolvin D1 Receptor DRV1; note: 0% is about no effect
Conditions: CHO-K1 GPR32 beta-arrestin PathHunter luminescence, 90 min; at 76.9 µM; hits give high values; zero percent set by DMSO-only wells
Outline: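 Readings come from a cell-based beta-arrestin complementation format: CHO-K1 GPR32 stable cells (2,500/well) treated 90 min with compounds, then beta-Gal substrate added for 1 h before chemiluminescence imaging.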

SMILES | activation
Cc1cccc(N2CCN(C(=O)Cn3nc(Cc4cccnc4)c4ccccc4c3=O)CC2)c1C | inactive: -22.8%
COc1ccc(S(=O)(=O)N(CC(=O)Nc2cccnc2)c2ccc(Cl)cc2)cc1 | inactive: -8.1%
CCOc1ccccc1CNC(=O)c1cccn1-c1nnc(N2CCCC2)s1 | inactive: 18.7%
COc1ccc(CNC(=O)Cn2c(=O)cc(-c3ccccc3)c3c(C)nn(C)c32)cc1 | inactive: 4.98%
Cc1ccccc1NC(=O)c1c(C)oc2ccc(O)c(CN3CCN(C)CC3)c12 | inactive: -6.18%
CCc1ccc2oc(C(=O)Nc3ccccc3C(=O)OC)cc(=O)c2c1 | inactive: 8.42%
CC(CCc1ccc(O)cc1)NCCc1ccc(O)c(O)c1 (stereo not given) | inactive: 13.3% and inactive: -7.77%
CC(C)(C)c1ccc(-c2nc(SCC(=O)Nc3ccccc3F)n3[nH]c(=O)cc3n2)cc1 | inactive: 0.123%
Cc1cccn2c(=O)c(C(=O)NCCc3ccc(S(N)(=O)=O)cc3)c(O)nc12 | inactive: -7.04%
Cc1ccccc1CSc1cn(CC(=O)N2CCCCCC2)c2ccccc12 | inactive: -33.4%
O=C(Nc1ccc(Cl)c(C(F)(F)F)c1)C1CCN(S(=O)(=O)c2cccc3nonc23)CC1 | active: 79%
O=C(O)Cn1ccc2cc(S(=O)(=O)N3CCCCCC3)ccc21 | inactive: -9.24%
COc1ccc(CNC(=O)COCc2cc(-c3cccs3)on2)cc1 | inactive: -4.38%
O=C(CCOc1ccccc1)N(Cc1cccnc1)c1nc2c(F)cccc2s1 | inactive: -29.8%
CCCCn1c(NCc2ccc(N(C)C)cc2)nc2ccccc21 | inactive: -3.94%
COc1ccc(S(=O)(=O)NCC(c2ccco2)N2CCN(c3ccc(F)cc3)CC2)cc1C (stereo not given) | inactive: -26.8%
O=C(Nc1ccc(F)c(Cl)c1)C1CCCN(c2cnccn2)C1 (stereo not given) | inactive: 5.43%
COc1ccc(CC2C(=O)Nc3ccc(Br)cc32)cc1OC (stereo not given) | inactive: -18.3%
COc1ccc(NC(=O)CCc2c(C)nc3nc(CNC(=O)OC(C)(C)C)nn3c2C)cc1OC | inactive: -12.8%
CCc1ccc(NC(=O)CC2C(=O)N(c3cccc(C)c3)C(=O)N2Cc2ccco2)cc1 (stereo not given) | inactive: -11.1%
CC(=O)N1CCCC1c1nc2ccccc2n1Cc1ccccc1C (stereo not given) | inactive: -6.71%
CCc1ccccc1NC(=O)N1CCN(C(=O)c2nsc3ccccc23)CC1 | inactive: -15.9%

SMILES | activation
COc1cccc2cc(C(=O)NCCc3c(C)[nH]c4ccc(F)cc34)c(=O)oc12 | inactive: 16.3%
CC1CCN(S(=O)(=O)c2ccc3c(ccn3CCC(=O)NCc3ccc(N(C)C)cc3)c2)CC1 | inactive: -35.2%
CCNc1nc(NC(C)(C)C)nc(Oc2ccc(=O)n(C)n2)n1 | inactive: -0.235%
CCS(=O)(=O)N1CCc2cc(C(=O)NCCc3ccc(OC)cc3)ccc21 | inactive: 22.1%
CC1CCN(S(=O)(=O)c2nnc(NC(=O)c3cccc(Br)c3)s2)CC1 | active: 72.7%
COc1cc(NC(=O)CC(C)n2nc(C)cc2C)cc(OC)c1 (stereo not given) | inactive: -3.23%
O=C(NCCc1ccccc1)C(=O)NCC(c1ccc2c(c1)OCO2)N1CCOCC1 (stereo not given) | inactive: 0.162%
COc1cc(NC(=O)C(CCSC)NS(=O)(=O)c2ccc3c(c2)oc(=O)n3C)cc(OC)c1 (stereo not given) | inactive: -20.4%
CCOc1ccccc1C(=O)N(Cc1ccccc1F)C1CCS(=O)(=O)C1 (stereo not given) | inactive: -6.01%
Cc1ccc(-c2nnc3ccccc3c2C(=O)Nc2ccccc2F)cc1 | inactive: -11.8%
Cc1ccc(NC(=O)Cn2c(=O)n(CCC(=O)NCc3ccccc3Cl)c(=O)c3ccccc32)cc1 | inactive: -3.66%
COc1ccc(Cl)cc1NC(=O)CSc1cn(CC(=O)N2CCCCCC2)c2ccccc12 | inactive: -14.9%
Cc1ccc(-n2c(=O)c3c(cnn3C)n(CC(=O)Nc3ccccc3C)c2=O)cc1 | inactive: 3.49%
CCOc1ccc(-n2c(SCC(=O)NC3CCCCC3)nc3c([nH]c4ccccc43)c2=O)cc1 | inactive: -29.8%
Cc1ccc(CNC(=O)CCCn2c(=O)[nH]c3ccc(Br)cc3c2=O)cc1 | inactive: 15.7%
COc1ccc2nc(C)cc(Nc3ccc(Cl)c(Cl)c3)c2c1 | inactive: 12.8%
Cc1cccc(Cn2cc(S(=O)(=O)c3cccc(C)c3)c(=O)c3cc(F)c(N4CCOCC4)cc32)c1 | inactive: -6.97%
CCCCn1c(=NC(=O)c2cc3ccccc3o2)c(C(=O)OCC)cc2c(=O)n3ccccc3nc21 | inactive: -3.09%
O=C(Oc1ccc(Cl)cc1)c1cc(-c2ccc3c(c2)OCCO3)on1 | inactive: 2.53%
CCN(CC)CCNC(=O)Cn1nc(C)c2c(C)n(-c3ccccc3)nc2c1=O | inactive: 2.02%
COc1ccc(Cn2ccnc2SCC(=O)NCc2ccco2)cc1 | inactive: -5.63%
COc1ccc(-c2onc(C)c2C)cc1S(=O)(=O)NCC1CCN(Cc2cc(C)ccc2C)CC1 | inactive: -11.8%

SMILES | activation
Cc1cccc(N2CCN(S(=O)(=O)c3ccc4c(c3)CC(=O)N4C)CC2)c1C | inactive: -7.6%
COC(=O)c1ccccc1NC(=O)c1ccc2nc(CCc3ccccc3)oc2c1 | inactive: -18.3%
CCn1c(=O)c2cc(C(=O)NCCCN3CCC(C)CC3)sc2c2ccccc21 | inactive: 2.77%
COc1cccc(-c2noc(COc3ccccc3Cl)n2)c1 | inactive: -11.1%
Cc1ccc(Cl)cc1NC(=O)CSc1nc2ccccc2nc1Cc1ccccc1 | inactive: -9.31%
Cc1ccccc1CSc1nc2ccsc2c(=O)n1CCC(C)C | inactive: -4.68%
Cc1ccc2cc(CN(C(=O)c3cccc(Cl)c3)c3ccccc3)c(=O)[nH]c2c1 | inactive: -12.3%
CCCSCCCNC(=O)c1ccc2c(c1)sc1nc(-c3ccc(OCC)cc3)cn12 | inactive: -7.42%
CC1C(=O)N2CCCc3cc(S(=O)(=O)N4CCC(C(N)=O)CC4)cc1c32 (stereo not given) | inactive: -4.69%
COc1ccccc1NC(=O)c1oc2ccccc2c1NC(=O)C1CCCCC1 | inactive: -5.25%
COc1cccc(CNC(=O)c2cnc(N3CCCCC3)c3ccccc23)c1 | inactive: 16.8%
O=C(NCc1ccccc1F)C1CCN(c2nn3cc(-c4ccc(F)cc4)nc3s2)CC1 | inactive: -4.43%
CN1c2ccc(Cl)cc2-c2nc(SCC(=O)NCc3ccccc3)ncc2S1(=O)=O | inactive: -2.15%
Cc1ccc(OCc2ccc(-c3nc(C#N)c(NCc4ccccc4Cl)o3)o2)cc1 | inactive: 17.4%
Cc1ccc(Cn2c(C(=O)O)c(CNC3CCCC3)c3ccc(C)cc32)cc1 | inactive: 17.8%
COc1ccc(C)cc1NC(=O)C(Cc1ccccc1)NS(=O)(=O)c1cccs1 (stereo not given) | inactive: 2.9%
O=C(NC1CC(=O)N(c2cccc(F)c2)C1)c1cc2ccccc2o1 (stereo not given) | inactive: -12.9%
O=C(Nc1ccccc1C(F)(F)F)N1CCC(CN2CCc3ccccc3C2)CC1 | inactive: -12%
Cc1cc(C)cc(-n2c(SCC(N)=O)nc3c([nH]c4ccccc43)c2=O)c1 | inactive: -18.6%
CCOC(=O)c1ccc(CN(Cc2ccccc2C)S(=O)(=O)c2ccc(F)c(C)c2)cc1 | inactive: -31%
COCCNc1oc(/C=C/c2ccc(F)cc2)nc1C#N | inactive: -28.3%
Cc1ccc2nc(-c3cccc(NC(=O)c4cccc5ccccc45)c3)oc2c1 | inactive: 3.6%

SMILES | activation
CCC(=O)N1CCc2cc(Br)cc(S(=O)(=O)CCC(=O)NCc3cccc(OC)c3)c21 | inactive: -11.5%
CCOC(=O)CC(=O)CSc1nc2ccsc2c(=O)n1Cc1ccccc1 | inactive: -24.8%
CCC(=O)N1CCc2cc(Br)cc(S(=O)(=O)N3CCN(c4ccccc4OC)CC3)c21 | inactive: 2.18%
Cc1noc(-c2ccc(NC(C)c3ccccc3)c([N+](=O)[O-])c2)n1 (stereo not given) | inactive: -9.96%
Cc1ccc(CNC(=O)c2nc(SCc3ccccc3C)ncc2Cl)cc1 | inactive: 0.125%
CC1(c2ccccc2)CC(C)(C)N(C(=O)c2cccc(Cl)c2)c2ccccc21 (stereo not given) | inactive: -29.7%
COc1ccccc1NC(=O)c1ccc(CN2C(=O)C(C)=C(c3ccc(C)c(C)c3)S2(=O)=O)cc1 | inactive: -12.2%
Cc1ccc(CNC(=O)c2ccc(CSCc3cccc(C)c3)o2)cc1 | inactive: 20.6%
Cc1ccc(CCNS(=O)(=O)c2c(C)nc3sc(C)c(C)n3c2=O)cc1 | inactive: 3.02%
COc1cccc(-c2nnc(-c3ccccc3NC(=O)c3ccc(F)cc3F)o2)c1 | inactive: -20.1%
Cc1cc(C)cc(-n2c(SCC(=O)N3CCOCC3)nc3c([nH]c4ccccc43)c2=O)c1 | inactive: -3.07%
O=C1C(=O)N(C2CCN(C(=O)c3ccccc3Cl)CC2)CCN1Cc1ccc(F)cc1 | inactive: -18.3%
Cc1nc2ccn(Cc3cccs3)c(=O)c2cc1C(=O)N1CCN(c2ccccc2F)CC1 | inactive: -19.9%
COc1cccc(NC(=O)c2ccc3c(c2)CCN3S(C)(=O)=O)c1 | inactive: 4.99%
CC1CCN(S(=O)(=O)c2ccc3c(c2)N(CC(=O)NCCc2ccccc2)C(=O)CO3)CC1 | inactive: -32.1%
Fc1ccc(Nc2ncnc3onc(-c4ccc(Cl)cc4)c23)cc1Cl | inactive: 49.8%
CCOc1ccc(CCNC(=O)c2ccc3c(c2)N(Cc2ccc(C)cc2)CCS3)cc1 | inactive: -20.6%
O=C(C1CCCN(S(=O)(=O)c2ccc(Br)s2)C1)N1CCN(c2ccccc2F)CC1 (stereo not given) | inactive: -20.4%
CCOC(=O)c1cn(CC(=O)Nc2ccc(OC)cc2OC)nn1 | inactive: -11.4%
